# Experimental data as given in the supplement of paper PMC8728848.
# Some of the results follow.
# Assays:
# Test in all cases: glycan array binding signal (z-score within array); higher = stronger binding
# Conditions in all cases: glycan notation: IUPAC condensed, linker removed
# [1] = target: Fuc(a1-2)Gal(b1-4)GlcNAc(b1-2)[Fuc(a1-2)Gal(b1-4)GlcNAc(b1-4)]Man(a1-3)[Fuc(a1-2)Gal(b1-4)GlcNAc(b1-2)Man(a1-6)]Man(b1-4)GlcNAc(b1-4)GlcNAc
# How it was run: (§1)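 The Consortium for Functional Glycomics database supplied 3228 glycan arrays, of which those lacking an available protein sequence were dropped. The binding signal, a within-array Z-score, was averaged across arrays of the same protein sequence and across linkers. Negative scores can be read as non-binding.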
# [2] = target: Fuc(a1-2)Gal(b1-4)GlcNAc(b1-3)Gal(b1-4)GlcNAc
# How it was run: as §1
# [3] = target: Fuc(a1-2)Gal(b1-4)GlcNAc(b1-3)Gal(b1-4)GlcNAc(b1-2)Man(a1-3)[Fuc(a1-2)Gal(b1-4)GlcNAc(b1-3)Gal(b1-4)GlcNAc(b1-2)Man(a1-6)]Man(b1-4)GlcNAc(b1-4)GlcNAc
# How it was run: as §1
# [4] = target: Fuc(a1-2)Gal(b1-4)GlcNAc(b1-3)Gal(b1-4)GlcNAc(b1-3)Gal(b1-4)GlcNAc
# How it was run: as §1
# [5] = target: Fuc(a1-2)Gal(b1-4)GlcNAc(b1-3)GalNAc
# How it was run: as §1
# [6] = target: Fuc(a1-2)Gal(b1-4)GlcNAc(b1-3)[Fuc(a1-2)Gal(b1-4)GlcNAc(b1-6)]GalNAc
# How it was run: as §1
# [7] = target: Fuc(a1-2)Gal(b1-4)GlcNAc(b1-3)[Fuc(a1-3)[Gal(b1-4)]GlcNAc(b1-6)]Gal(b1-4)Glc
# How it was run: as §1
# [8] = target: Fuc(a1-2)Gal(b1-4)GlcNAc(b1-6)GalNAc
# How it was run: as §1
# [9] = target: Fuc(a1-2)Gal(b1-4)GlcNAc6S
# How it was run: as §1
# [10] = target: Fuc(a1-2)Gal(b1-4)[Fuc(a1-3)]GlcNAc
# How it was run: as §1
# [11] = target: Fuc(a1-2)Gal(b1-4)[Fuc(a1-3)]GlcNAc(b1-2)Man(a1-3)[Fuc(a1-2)Gal(b1-4)[Fuc(a1-3)]GlcNAc(b1-2)Man(a1-6)]Man(b1-4)GlcNAc(b1-4)GlcNAc
# How it was run: as §1
# [12] = target: Fuc(a1-2)Gal(b1-4)[Fuc(a1-3)]GlcNAc(b1-2)Man(a1-3)[Fuc(a1-2)Gal(b1-4)[Fuc(a1-3)]GlcNAc(b1-2)Man(a1-6)]Man(b1-4)GlcNAc(b1-4)[Fuc(a1-6)]GlcNAc
# How it was run: as §1
# [13] = target: Fuc(a1-2)Gal(b1-4)[Fuc(a1-3)]GlcNAc(b1-2)[Fuc(a1-2)Gal(b1-4)[Fuc(a1-3)]GlcNAc(b1-4)]Man(a1-3)[Fuc(a1-2)Gal(b1-4)[Fuc(a1-3)]GlcNAc(b1-2)Man(a1-6)]Man(b1-4)GlcNAc(b1-4)GlcNAc
# How it was run: as §1
# [14] = target: Fuc(a1-2)Gal(b1-4)[Fuc(a1-3)]GlcNAc(b1-3)Gal(b1-4)[Fuc(a1-3)]GlcNAc
# How it was run: as §1
# [15] = target: Fuc(a1-2)Gal(b1-4)[Fuc(a1-3)]GlcNAc(b1-3)Gal(b1-4)[Fuc(a1-3)]GlcNAc(b1-3)Gal(b1-4)[Fuc(a1-3)]GlcNAc
# How it was run: as §1
# [16] = target: Fuc(a1-2)Gal(b1-4)[Fuc(a1-3)]GlcNAc(b1-3)GalNAc
# How it was run: as §1
# [17] = target: Fuc(a1-2)Gal(b1-4)[Fuc(a1-3)]GlcNAc(b1-3)[Neu5Ac(a2-6)Gal(b1-4)GlcNAc(b1-6)]Gal(b1-4)Glc
# How it was run: as §1
# [18] = target: Fuc(a1-2)Gal3S(b1-4)GlcNAc
# How it was run: as §1
# [19] = target: Fuc(a1-2)Gal6S(b1-3)GlcNAc
# How it was run: as §1
# [20] = target: Fuc(a1-2)Gal6S(b1-3)GlcNAc6S
# How it was run: as §1
# Fuc(a1-2)Gal6S(b1-4)Glc = target: Fuc(a1-2)Gal6S(b1-4)Glc
# How it was run: as §1
# [21] = target: Fuc(a1-2)Gal6S(b1-4)Glc6S
# How it was run: as §1
# [22] = target: Fuc(a1-2)Gal6S(b1-4)GlcNAc
# How it was run: as §1
# Fuc(a1-2)[Gal(a1-3)]Gal = target: Fuc(a1-2)[Gal(a1-3)]Gal
# How it was run: as §1
# [23] = target: Fuc(a1-2)[Gal(a1-3)]Gal(b1-3)GalNAc
# How it was run: as §1
# [24] = target: Fuc(a1-2)[Gal(a1-3)]Gal(b1-3)GalNAc(b1-3)Gal(a1-4)Gal(b1-4)Glc
# How it was run: as §1
# [25] = target: Fuc(a1-2)[Gal(a1-3)]Gal(b1-3)GlcNAc
# How it was run: as §1
# [26] = target: Fuc(a1-2)[Gal(a1-3)]Gal(b1-3)GlcNAc(b1-2)Man(a1-3)[Fuc(a1-2)[Gal(a1-3)]Gal(b1-3)GlcNAc(b1-2)Man(a1-6)]Man(b1-4)GlcNAc(b1-4)GlcNAc
# How it was run: as §1
# [27] = target: Fuc(a1-2)[Gal(a1-3)]Gal(b1-3)GlcNAc(b1-2)Man(a1-3)[Fuc(a1-2)[Gal(a1-3)]Gal(b1-3)GlcNAc(b1-2)Man(a1-6)]Man(b1-4)GlcNAc(b1-4)[Fuc(a1-6)]GlcNAc
# How it was run: as §1
# [28] = target: Fuc(a1-2)[Gal(a1-3)]Gal(b1-3)GlcNAc(b1-3)GalNAc
# How it was run: as §1
binder,measurement,setting,value
"rCNL (Clitocybe nebularis), B2ZRS9 (protein) SITPGTYNITNVAYTNRLIDLTGSNPAENTLIIGHHLNKTPSGYGNQQWTLVQLPHTTIYTMQAVNPQSYVRVRDDNLVDGAALVGSQQPTPVSIESAGNSGQFRIKIPNLGLALTLPSDANSTPIVLGEVDETSTNQLWAFESVSAV",glycan array binding signal (z-score),[1],-0.171
same,glycan array binding signal (z-score),[2],0.058
same,glycan array binding signal (z-score),[3],-0.199
same,glycan array binding signal (z-score),[4],0.096
same,glycan array binding signal (z-score),[5],-0.284
same,glycan array binding signal (z-score),[6],-0.213
same,glycan array binding signal (z-score),[7],-0.23
same,glycan array binding signal (z-score),[8],-0.207
same,glycan array binding signal (z-score),[9],-0.222
same,glycan array binding signal (z-score),[10],-0.298
same,glycan array binding signal (z-score),[11],-0.311
same,glycan array binding signal (z-score),[12],-0.216
same,glycan array binding signal (z-score),[13],-0.149
same,glycan array binding signal (z-score),[14],-0.303
same,glycan array binding signal (z-score),[15],-0.201
same,glycan array binding signal (z-score),[16],-0.222
same,glycan array binding signal (z-score),[17],-0.211
same,glycan array binding signal (z-score),[18],-0.227
same,glycan array binding signal (z-score),[19],-0.216
same,glycan array binding signal (z-score),[20],-0.199
same,glycan array binding signal (z-score),Fuc(a1-2)Gal6S(b1-4)Glc,-0.3
same,glycan array binding signal (z-score),[21],-0.334
same,glycan array binding signal (z-score),[22],-0.345
same,glycan array binding signal (z-score),Fuc(a1-2)[Gal(a1-3)]Gal,-0.117
same,glycan array binding signal (z-score),[23],-0.222
same,glycan array binding signal (z-score),[24],-0.221
same,glycan array binding signal (z-score),[25],-0.115
same,glycan array binding signal (z-score),[26],-0.043
same,glycan array binding signal (z-score),[27],-0.152
same,glycan array binding signal (z-score),[28],-0.216
